Measurements: US20250361299A1 (published 2025)

What was measured:
Human CD3 protein [1] = molecular target: T1, Human CD3 protein (human, UniProt P07766 23-126); test: ELISA; with uPA
T1 chain: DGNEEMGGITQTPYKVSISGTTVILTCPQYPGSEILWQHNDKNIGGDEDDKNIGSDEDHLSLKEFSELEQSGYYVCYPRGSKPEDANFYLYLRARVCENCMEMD

Human CD3 protein [2] = molecular target: T1, Human CD3 protein; test: ELISA; without uPA
Human CD3 protein [3] = molecular target: T1, Human CD3 protein; test: ELISA; without uPA
Recombinant human EGFR [4] = molecular target: T2, Recombinant human EGFR (human, UniProt P00533 partial chain); test: ELISA; without uPA
Human CD3 protein [5] = molecular target: T1, Human CD3 protein; test: ELISA; with uPA
Recombinant human EGFR [6] = molecular target: T2, Recombinant human EGFR; test: ELISA; with uPA
Human CD3 protein [7] = molecular target: T1, Human CD3 protein; test: ELISA
Human CD3 protein [8] = molecular target: T1, Human CD3 protein; test: ELISA; with uPA

B1: 1.4.3 proBiTE after uPA digestion (bispecific antibody)
heavy: SDNHGGSEVQLVESGGGLVQPGGSLRLSCAASGFTFNTYAMNWVRQAPGKGLEWVARIRSKYNNYATYYADSVKGRFTISRDDSKNTLYLQMNSLRAEDTAVYYCARHGNFGSSYVSYFAYWGQGTTVTVSSGGGSSGGGGSGGGGSEVQLVETGGGVVQPGRSLRLSCAASGFTFSSYAMHWVRQAPGKGLEWVAVISYDGSNKYYADSVKGRFTISRDNSKNTLYLQMNSLRAEDTAVYYCARGYVARGDFDYWGQGTLVTVSSASTKGPSVFPLAPSSKSTSGGTAALGCLVKDYFPEPVTVSWNSGALTSGVHTFPAVLQSSGLYSLSSVVTVPSSSLGTQTYICNVNHKPSNTKVDKKVEPKS[human IgG1 Fc with T366L Y407H (EU numbers) cut from this listing]
light: EIVVTQSPATLSVSPGERATLSCRSSTGAVTTSNYANWVQQKPGQAPRGLIGGANKRAPGVPARFSGSLSGDEATLTISSLQSEDFAVYYCALWYSNLWVFGQGTKLEIKGGGGSGGGGSGGGGSDVVMTQSPSTLSASVGDRVTITCRASQSMSRWLAWYQQKPGKGPKLLIYATSTLQSGVPSRFSGSGSGTEFTLTISSLQPEDFATYYCQQLDSFPFSFTFGPGTKVDLKRTVAAPSVFIFPPSDEQLKSGTASVVCLLNNFYPREAKVQWKVDNALQSGNSQESVTEQDSKDSTYSLSSTLTLSKADYEKHKVYACEVTHQGLSSPVTKSFNRGE[human IgG1 Fc with T366L Y407H (EU numbers) cut from this listing]
Human CD3 protein [1]
  EC50: 2.71 µg/mL

B2: 1.4.3 proBiTE (bispecific antibody)
heavy: QDGNEEMGGIGGGSQDGNEEMGGGGGSGGGSGLSGRSDNHGGSEVQLVESGGGLVQPGGSLRLSCAASGFTFNTYAMNWVRQAPGKGLEWVARIRSKYNNYATYYADSVKGRFTISRDDSKNTLYLQMNSLRAEDTAVYYCARHGNFGSSYVSYFAYWGQGTTVTVSSGGGSSGGGGSGGGGSEVQLVETGGGVVQPGRSLRLSCAASGFTFSSYAMHWVRQAPGKGLEWVAVISYDGSNKYYADSVKGRFTISRDNSKNTLYLQMNSLRAEDTAVYYCARGYVARGDFDYWGQGTLVTVSSASTKGPSVFPLAPSSKSTSGGTAALGCLVKDYFPEPVTVSWNSGALTSGVHTFPAVLQSSGLYSLSSVVTVPSSSLGTQTYICNVNHKPSNTKVDKKVEPKS[human IgG1 Fc with T366L Y407H (EU numbers) cut from this listing]
light: EIVVTQSPATLSVSPGERATLSCRSSTGAVTTSNYANWVQQKPGQAPRGLIGGANKRAPGVPARFSGSLSGDEATLTISSLQSEDFAVYYCALWYSNLWVFGQGTKLEIKGGGGSGGGGSGGGGSDVVMTQSPSTLSASVGDRVTITCRASQSMSRWLAWYQQKPGKGPKLLIYATSTLQSGVPSRFSGSGSGTEFTLTISSLQPEDFATYYCQQLDSFPFSFTFGPGTKVDLKRTVAAPSVFIFPPSDEQLKSGTASVVCLLNNFYPREAKVQWKVDNALQSGNSQESVTEQDSKDSTYSLSSTLTLSKADYEKHKVYACEVTHQGLSSPVTKSFNRGE[human IgG1 Fc with T366L Y407H (EU numbers) cut from this listing]
Human CD3 protein [2]
  EC50: 72.7 µg/mL

B3: 1.4.3-Pa proBiTE (bispecific antibody)
heavy: QDGNEEMGGIGGGSQDGNEEMGGGGGSGGGSGLSGRSDNHGGSEVQLVESGGGLVQPGGSLRLSCAASGFTFNTYAMNWVRQAPGKGLEWVARIRSKYNNYATYYADSVKGRFTISRDDSKNTLYLQMNSLRAEDTAVYYCARHGNFGSSYVSYFAYWGQGTTVTVSSGGGSSGGGGSGGGGSQVQLQESGPGLVKPSETLSLTCTVSGGSVSSGDYYWTWIRQSPGKGLEWIGHIYYSGNTNYNPSLKSRLTISIDTSKTQFSLKLSSVTAADTAIYYCVRDRVTGAFDIWGQGTMVTVSSASTKGPSVFPLAPSSKSTSGGTAALGCLVKDYFPEPVTVSWNSGALTSGVHTFPAVLQSSGLYSLSSVVTVPSSSLGTQTYICNVNHKPSNTKVDKKVEPKS[human IgG1 Fc with T366L Y407H (EU numbers) cut from this listing]
light: EIVVTQSPATLSVSPGERATLSCRSSTGAVTTSNYANWVQQKPGQAPRGLIGGANKRAPGVPARFSGSLSGDEATLTISSLQSEDFAVYYCALWYSNLWVFGQGTKLEIKGGGGSGGGGSGGGGSDIQMTQSPSSLSASVGDRVTITCQASQDISNYLNWYQQKPGKAPKLLIYDASNLETGVPSRFSGSGSGTDFTFTISSLQPEDIATYFCQHFDHLPLAFGGGTKVEIKRTVAAPSVFIFPPSDEQLKSGTASVVCLLNNFYPREAKVQWKVDNALQSGNSQESVTEQDSKDSTYSLSSTLTLSKADYEKHKVYACEVTHQGLSSPVTKSFNRGE[human IgG1 Fc with T366L Y407H (EU numbers) cut from this listing]
Human CD3 protein [3]
  EC50: ~29.9 µg/mL
Recombinant human EGFR [4]
  EC50: 0.193 µg/mL

B4: 1.4.3-Pa proBiTE after uPA digestion (bispecific antibody)
heavy: SDNHGGSEVQLVESGGGLVQPGGSLRLSCAASGFTFNTYAMNWVRQAPGKGLEWVARIRSKYNNYATYYADSVKGRFTISRDDSKNTLYLQMNSLRAEDTAVYYCARHGNFGSSYVSYFAYWGQGTTVTVSSGGGSSGGGGSGGGGSQVQLQESGPGLVKPSETLSLTCTVSGGSVSSGDYYWTWIRQSPGKGLEWIGHIYYSGNTNYNPSLKSRLTISIDTSKTQFSLKLSSVTAADTAIYYCVRDRVTGAFDIWGQGTMVTVSSASTKGPSVFPLAPSSKSTSGGTAALGCLVKDYFPEPVTVSWNSGALTSGVHTFPAVLQSSGLYSLSSVVTVPSSSLGTQTYICNVNHKPSNTKVDKKVEPKS[human IgG1 Fc with T366L Y407H (EU numbers) cut from this listing]
light: EIVVTQSPATLSVSPGERATLSCRSSTGAVTTSNYANWVQQKPGQAPRGLIGGANKRAPGVPARFSGSLSGDEATLTISSLQSEDFAVYYCALWYSNLWVFGQGTKLEIKGGGGSGGGGSGGGGSDIQMTQSPSSLSASVGDRVTITCQASQDISNYLNWYQQKPGKAPKLLIYDASNLETGVPSRFSGSGSGTDFTFTISSLQPEDIATYFCQHFDHLPLAFGGGTKVEIKRTVAAPSVFIFPPSDEQLKSGTASVVCLLNNFYPREAKVQWKVDNALQSGNSQESVTEQDSKDSTYSLSSTLTLSKADYEKHKVYACEVTHQGLSSPVTKSFNRGE[human IgG1 Fc with T366L Y407H (EU numbers) cut from this listing]
Human CD3 protein [5]
  EC50: 0.0443 µg/mL
Recombinant human EGFR [6]
  EC50: 0.138 µg/mL

B5: 1.4-Noncleavable (antibody)
chain 1: QDGNEEMGGIGGGSQDGNEEMGGGGGSGGGSGGGSGLSGGAGNHGGSEVQLVESGGGLVQPGGSLRLSCAASGFTFNTYAMNWVRQAPGKGLEWVARIRSKYNNYATYYADSVKGRFTISRDDSKNTLYLQMNSLRAEDTAVYYCARHGNFGSSYVSYFAYWGQGTTVTVSSGGGSSGGGGSGGGGSEVQLVETGGGVVQPGRSLRLSCAASGFTFSSYAMHWVRQAPGKGLEWVAVISYDGSNKYYADSVKGRFTISRDNSKNTLYLQMNSLRAEDTAVYYCARGYVARGDFDYWGQGTLVTVSSASTKGPSVFPLAPSSKSTSGGTAALGCLVKDYFPEPVTVSWNSGALTSGVHTFPAVLQSSGLYSLSSVVTVPSSSLGTQTYICNVNHKPSNTKVDKKVEPKS[human IgG1 Fc with T366L Y407H (EU numbers) cut from this listing]
chain 2: EIVVTQSPATLSVSPGERATLSCRSSTGAVTTSNYANWVQQKPGQAPRGLIGGANKRAPGVPARFSGSLSGDEATLTISSLQSEDFAVYYCALWYSNLWVFGQGTKLEIKGGGGSGGGGSGGGGSDVVMTQSPSTLSASVGDRVTITCRASQSMSRWLAWYQQKPGKGPKLLIYATSTLQSGVPSRFSGSGSGTEFTLTISSLQPEDFATYYCQQLDSFPFSFTFGPGTKVDLKRTVAAPSVFIFPPSDEQLKSGTASVVCLLNNFYPREAKVQWKVDNALQSGNSQESVTEQDSKDSTYSLSSTLTLSKADYEKHKVYACEVTHQGLSSPVTKSFNRGE[human IgG1 Fc with T366L Y407H (EU numbers) cut from this listing]
Human CD3 protein [7]
  EC50: 23.5 µg/mL

B6: 1.3 proBiTE after uPA digestion (bispecific antibody)
heavy: SDNHGGSEVQLVESGGGLVQPGGSLRLSCAASGFTFNTYAMNWVRQAPGKGLEWVARIRSKYNNYATYYADSVKGRFTISRDDSKNTLYLQMNSLRAEDTAVYYCARHGNFGSSYVSYFAYWGQGTTVTVSSGGGSSGGGGSGGGGSEVQLVETGGGVVQPGRSLRLSCAASGFTFSSYAMHWVRQAPGKGLEWVAVISYDGSNKYYADSVKGRFTISRDNSKNTLYLQMNSLRAEDTAVYYCARGYVARGDFDYWGQGTLVTVSSASTKGPSVFPLAPSSKSTSGGTAALGCLVKDYFPEPVTVSWNSGALTSGVHTFPAVLQSSGLYSLSSVVTVPSSSLGTQTYICNVNHKPSNTKVDKKVEPKS[human IgG1 Fc with T366L Y407H (EU numbers) cut from this listing]
light: EIVVTQSPATLSVSPGERATLSCRSSTGAVTTSNYANWVQQKPGQAPRGLIGGANKRAPGVPARFSGSLSGDEATLTISSLQSEDFAVYYCALWYSNLWVFGQGTKLEIKGGGGSGGGGSGGGGSDVVMTQSPSTLSASVGDRVTITCRASQSMSRWLAWYQQKPGKGPKLLIYATSTLQSGVPSRFSGSGSGTEFTLTISSLQPEDFATYYCQQLDSFPFSFTFGPGTKVDLKRTVAAPSVFIFPPSDEQLKSGTASVVCLLNNFYPREAKVQWKVDNALQSGNSQESVTEQDSKDSTYSLSSTLTLSKADYEKHKVYACEVTHQGLSSPVTKSFNRGE[human IgG1 Fc with T366L Y407H (EU numbers) cut from this listing]
Human CD3 protein [8]
  EC50: 0.633 µg/mL
